Assay results published in the supplement of paper PMC7826260.
The other results are listed elsewhere or left out. Cleavage of a single-stranded DNA pool by Rep nickase domains was read by sequencing (1 h at 37 °C, 3 µM enzyme); the outer parts of the 90-letter strands are left off. The score is log2 (uncut reads / reads without enzyme); more negative means more cut, near 0 not cut, and no call is made. Reads are scaled to the total; values above 0 arise when much of the pool is cut.

Assays:
Test in all cases: uncleaved DNA left, log2 of reads against the no-enzyme library (log2 ratio); higher = less cleavage (more negative = more Rep cleavage of the k-mer); sequences stand for … in CTCGTCCG…ACCGGAGA
[1] = system: T1, Rep nickase domain of Muscovy duck circovirus
T1 sequence (residues 1-111 of Rep, tag left off): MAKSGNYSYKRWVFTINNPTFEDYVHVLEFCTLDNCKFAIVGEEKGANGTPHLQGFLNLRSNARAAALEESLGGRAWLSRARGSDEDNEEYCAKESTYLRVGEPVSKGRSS
Protocol: (§1)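 A pool of 90-nt single-stranded DNAs with seven random bases just before the constant AC of the nick site (name = the seven bases) was cut by 3 µM recombinant His6-SUMO-tagged Rep nickase domain (300 nM DNA, 50 mM HEPES pH 8.0, 50 mM NaCl, 1 mM MnCl2, 1 h, 37 °C, three replicates). Uncut DNA was amplified and sequenced.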

[2] = system: T2, Rep nickase domain of banana bunchy top virus
T2 sequence (residues 1-94 of Rep, tag left off): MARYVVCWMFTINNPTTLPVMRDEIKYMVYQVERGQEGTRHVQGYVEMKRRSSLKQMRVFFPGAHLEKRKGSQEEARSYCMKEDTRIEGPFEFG
Protocol: as §1

[3] = system: T3, Rep nickase domain of cabbage leaf curl virus
T3 sequence (residues 1-116 of Rep, tag left off): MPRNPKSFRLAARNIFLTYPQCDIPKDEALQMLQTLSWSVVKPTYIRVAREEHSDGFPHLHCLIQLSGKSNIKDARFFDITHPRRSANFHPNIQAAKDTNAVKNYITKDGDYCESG
Protocol: as §1

[4] = system: T4, Rep nickase domain of chickpea chlorotic dwarf virus
T4 sequence (residues 1-124 of Rep, tag left off): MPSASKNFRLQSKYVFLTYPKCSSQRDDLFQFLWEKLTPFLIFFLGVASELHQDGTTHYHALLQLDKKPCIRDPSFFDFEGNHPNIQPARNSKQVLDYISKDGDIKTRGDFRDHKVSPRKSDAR
Protocol: as §1

[5] = system: T5, Rep nickase domain of faba bean necrotic yellows virus
T5 sequence (residues 1-98 of Rep, tag left off): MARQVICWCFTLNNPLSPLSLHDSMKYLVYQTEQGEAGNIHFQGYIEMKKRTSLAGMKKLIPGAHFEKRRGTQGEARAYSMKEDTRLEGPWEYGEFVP
Protocol: as §1

[6] = system: T6, Rep nickase domain of maize striate mosaic virus
T6 sequence (residues 1-117 of Rep, tag left off): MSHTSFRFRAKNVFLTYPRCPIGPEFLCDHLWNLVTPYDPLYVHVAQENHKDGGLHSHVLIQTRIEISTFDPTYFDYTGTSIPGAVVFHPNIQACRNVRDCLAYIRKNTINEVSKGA
Protocol: as §1

[7] = system: T7, Rep nickase domain of porcine circovirus 2
T7 sequence (residues 2-116 of Rep, tag left off): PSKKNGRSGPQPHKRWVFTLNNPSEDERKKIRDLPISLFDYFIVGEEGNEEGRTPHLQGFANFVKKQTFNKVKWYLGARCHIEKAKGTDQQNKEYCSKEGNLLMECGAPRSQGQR
Protocol: as §1

[8] = system: T8, Rep nickase domain of tomato golden mosaic virus
T8 sequence (residues 1-124 of Rep, tag left off): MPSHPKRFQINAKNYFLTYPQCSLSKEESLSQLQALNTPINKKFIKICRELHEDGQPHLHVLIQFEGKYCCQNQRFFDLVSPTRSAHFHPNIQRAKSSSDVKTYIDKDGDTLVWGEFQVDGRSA
Protocol: as §1

[9] = system: T9, Rep nickase domain of tomato yellow leaf curl virus
T9 sequence (residues 1-136 of Rep, tag left off): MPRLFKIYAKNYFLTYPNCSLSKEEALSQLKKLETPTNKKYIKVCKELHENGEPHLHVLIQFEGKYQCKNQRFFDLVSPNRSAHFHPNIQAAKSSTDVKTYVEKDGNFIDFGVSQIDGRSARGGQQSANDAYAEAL
Protocol: as §1

[10] = system: T10, Rep nickase domain of wheat dwarf virus
T10 sequence (residues 1-137 of Rep, tag left off): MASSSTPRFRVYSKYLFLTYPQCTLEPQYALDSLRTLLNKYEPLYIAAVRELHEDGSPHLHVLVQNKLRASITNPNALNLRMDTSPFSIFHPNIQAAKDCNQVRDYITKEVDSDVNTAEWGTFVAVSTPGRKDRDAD
Protocol: as §1

Sequence	uncleaved DNA left (log2) [1]	uncleaved DNA left (log2) [2]	uncleaved DNA left (log2) [3]	uncleaved DNA left (log2) [4]	uncleaved DNA left (log2) [5]	uncleaved DNA left (log2) [6]	uncleaved DNA left (log2) [7]	uncleaved DNA left (log2) [8]	uncleaved DNA left (log2) [9]	uncleaved DNA left (log2) [10]
CAGGGCT	-0.0397	-0.0627	-0.0359	0.145	0.1	0.093	-0.0826	0.0724	-0.045	-0.0195
GCCCTCT	0.00155	0.146	0.151	-0.698	0.0406	0.157	-0.0208	0.0683	0.0683	0.0516
ACGCTAA	0.0389	0.0673	-0.0808	-0.316	0.0231	-0.464	0.116	0.0986	-0.0536	-0.0617
CGTCGGC	-0.014	-0.0417	-0.08	0.119	-0.00735	-0.3	0.0805	-0.124	-0.0399	0.00233
TTAATCG	0.0963	0.0445	-0.798	-0.322	0.0416	-1.21	0.117	0.0254	-0.0212	-0.0081
GAGATCT	0.0882	-0.152	0.449	-0.671	-0.0925	1.67	-2.67	0.152	0.15	0.261
CCGTTAA	0.0562	0.0826	0.00946	-0.275	0.0442	-0.612	0.0475	-0.0791	-0.00533	0.0863
TATATTC	-0.0456	-0.0161	-0.00842	-0.398	0.0127	-0.86	-0.0556	-0.0861	-0.012	-0.0784
CTGTACC	-0.0675	-0.0817	0.0386	-0.0557	-0.0975	0.108	-0.242	-0.11	0.0218	-0.0585
TCATCTC	-0.205	-0.0991	-0.309	-0.648	-0.247	-0.109	-0.191	-0.197	-0.211	-0.104
TGCCGAA	0.115	-0.00199	0.146	-0.096	-0.0914	-0.402	0.0769	0.0836	-0.0978	0.053
AAAAAAA	0.0102	0.114	0.0655	-0.808	0.143	-0.636	0.108	0.167	-0.0325	0.0589
TACGCAA	-0.0448	0.0231	-0.151	-1.04	-0.0247	-0.682	0.0373	-0.114	-0.106	0.0806
CGCGATG	-0.0243	0.0136	-0.145	0.48	-0.0888	1.44	-0.0659	0.0323	-0.154	-0.0852
TCTACGA	-0.0442	-0.104	0.123	-0.698	-0.112	-0.539	0.0364	-0.0201	-0.0786	-0.0638
ACACGAG	0.0158	-0.0315	0.151	1.16	-0.0169	-0.119	0.0376	-0.0248	-0.0977	-0.0119
GCGCTAT	0.0312	-0.118	0.0317	0.156	0.00544	0.271	-0.132	-0.177	-0.226	0.00199
TTGATGC	-0.0665	-0.161	-0.595	-0.594	0.0125	-1.24	-0.0388	-0.248	-0.118	-0.115
CGAATTG	0.0798	0.0373	0.102	0.578	0.0923	1.28	0.0779	0.0206	-0.00675	0.0994
GGCACTA	-0.0231	0.036	0.509	1.41	-0.0274	1.94	0.125	-0.0271	-0.0184	0.0977
GGGGCGT	0.113	0.196	0.93	2.04	0.0897	2.29	0.293	0.172	0.056	0.226
GTACTGT	-0.0609	0.0291	0.223	0.687	0.0856	1.64	-0.00267	0.0636	0.108	0.1
CTGACGT	0.0482	0.0493	0.0484	0.128	-0.041	-0.257	0.0747	0.000796	0.0203	0.0812
ACGGTTG	-0.113	-0.151	-0.243	0.229	-0.237	-0.34	-0.006	-0.0275	-0.115	-0.163
ACCACAA	0.0817	0.089	-0.156	-0.307	0.0313	-0.949	0.0449	-0.0294	-0.0383	-0.0501
GAACATG	-0.0346	0.0108	0.43	1.18	-0.0499	1.04	0.115	-0.00203	-0.0309	0.115
GCCCTAC	0.0217	0.0238	0.0327	-0.437	0.0253	0.213	0.00863	-0.0819	0.0424	0.00366
TACTTAT	-3.45	-2.37	-2.02	-2.96	-0.0587	-0.382	-3.78	-0.245	-0.0462	-0.29
CGATCGT	0.0612	0.0611	-0.161	-0.124	-0.0157	-0.488	-0.00255	0.0953	0.0414	0.0386
AAGAGAT	0.051	0.0415	0.26	1.69	0.134	1.81	0.0448	0.0697	-0.137	0.0455
